{
  "source": "the supplement of paper PMC8728848",
  "binders": {"B1": {"name": "SialidaseA (Arthrobacter ureafaciens) (protein)", "chain": "MRSNSTSAPSLVRRAATGVLTCAVSIGLLAGLGLPAQAAPTPPNSPTLPPGSFSETNLAADRTAANFFYRIPALTYLGNDVVLAAWDGRPGSAADAPNPNSIVQRRSTDGGKTWGPVQVIAAGHVADASGPRYGYSDPSYIYDAEANKVFAFFVYSKDQGFGGSQFGNDDADRNVISSAVIESSDAGVTWSQPRLITSVTKPGTSKTNPAAGDVRSNFASSGEGIQLKYGPHKGRLIQQYAGDVRQADGSNKIQAYSVYSDDHGVTWHKGANVGDRMDENKTVELSDGRVLLNSRDNANRGYRKVAVSTDGGATYGPVSQDTELPDPANNGAIARMFPNAAQGSADAKKLIFTNANSKTGRENVSARVSCDDGETWPGVRTIRSGFSAYSTVTRLADGKFGVLYEGNYTDNMPFATFDDAWLNYVCAPLAVPAVNIAPSATQEVPVTVTNQEATTLSGATATVYTPSGWSATTVPVPDVAPGASVTVTVALTAPADASGPRSLNAAFTTADGRVSQFTFTATTPVAPQVGLTITGSAPARDVAANPYQAGDVLGYTLNVKSTANVAANSVPLTGTFDSGFLPPAAPNCRYNNLAAGASYNCTTAKHTITAADMERGYFVPEATFSITSTTTPSLTKTVQFTGAAVALRDGLISADISGARTDVGRDLATRPYAAGELVPYAFTVKNTSPFVEQVVPTAGNFSPFLPAGAGNCRYLSLPAGQSYECATPRHAVTAEEVEQGFFVPDTTWEVSAAGQSTRTYRINGGEVDLLVRDAALSATVVAEWKDADGDRFASAGDPVTFTYTVGNAGNVALTGLEAPDAGISLPFLAPGDTATATREHVLTAADVAGGSLAASAFEATARNGSKEVTATAEGQPLELKVQPAQPSKEPELTVQDLEDQTPPFDLGTAFKYRTGQKVSLAGLEYGQWYYVYLNKTGYRLGWMFPTTGDTVEFILPPEVRNGRDDVVVLDKDGRRVSFDRLQVTPKGEKI"}},
  "assay_in_all_cases": "glycan array binding signal (z-score within array); higher = stronger binding",
  "conditions_in_all_cases": "glycan notation: IUPAC condensed, linker removed",
  "key": {"[1]": {"molecular_target": "Neu5Ac(a2-3)Gal(b1-3)GlcNAc6S", "in_short": "(§1)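 Columns mapping to the same glycan were averaged after glycan names were converted to IUPAC-condensed notation. The data come from 3228 arrays in the Consortium for Functional Glycomics database, limited to those with an available protein sequence. Binding is reported as a within-array Z-score averaged across arrays of one protein sequence and across linkers.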"}, "[2]": {"molecular_target": "Neu5Ac(a2-3)Gal(b1-3)[Fuc(a1-4)]GlcNAc", "in_short": "as §1"}, "[3]": {"molecular_target": "Neu5Ac(a2-3)Gal(b1-3)[Fuc(a1-4)]GlcNAc(b1-3)Gal(b1-3)[Fuc(a1-4)]GlcNAc", "in_short": "as §1"}, "[4]": {"molecular_target": "Neu5Ac(a2-3)Gal(b1-3)[Fuc(a1-4)]GlcNAc(b1-3)Gal(b1-4)[Fuc(a1-3)]GlcNAc", "in_short": "as §1"}, "[5]": {"molecular_target": "Neu5Ac(a2-3)Gal(b1-3)[GlcNAc(b1-6)]GalNAc", "in_short": "as §1"}, "[6]": {"molecular_target": "Neu5Ac(a2-3)Gal(b1-3)[Neu5Ac(a2-6)]GalNAc", "in_short": "as §1"}, "[7]": {"molecular_target": "Neu5Ac(a2-3)Gal(b1-3)[Neu5Ac(a2-6)]GlcNAc(b1-3)[Fuc(a1-3)[Gal(b1-4)]GlcNAc(b1-6)]Gal(b1-4)Glc", "in_short": "as §1"}, "[8]": {"molecular_target": "Neu5Ac(a2-3)Gal(b1-3)]Neu5Ac(a2-3)Gal(b1-4)]GlcNAc", "in_short": "as §1"}, "Neu5Ac(a2-3)Gal(b1-4)Glc": {"molecular_target": "Neu5Ac(a2-3)Gal(b1-4)Glc", "in_short": "as §1"}, "[9]": {"molecular_target": "Neu5Ac(a2-3)Gal(b1-4)GlcNAc", "in_short": "as §1"}, "[10]": {"molecular_target": "Neu5Ac(a2-3)Gal(b1-4)GlcNAc(b1-2)Man", "in_short": "as §1"}, "[11]": {"molecular_target": "Neu5Ac(a2-3)Gal(b1-4)GlcNAc(b1-2)Man(a1-3)[GlcNAc(b1-4)][Neu5Ac(a2-3)Gal(b1-4)GlcNAc(b1-2)Man(a1-6)]Man(b1-4)GlcNAc(b1-4)GlcNAc", "in_short": "as §1"}, "[12]": {"molecular_target": "Neu5Ac(a2-3)Gal(b1-4)GlcNAc(b1-2)Man(a1-3)[Neu5Ac(a2-3)Gal(b1-4)GlcNAc(b1-2)Man(a1-6)]Man(b1-4)GlcNAc(b1-4)GlcNAc", "in_short": "as §1"}, "[13]": {"molecular_target": "Neu5Ac(a2-3)Gal(b1-4)GlcNAc(b1-2)Man(a1-3)[Neu5Ac(a2-3)Gal(b1-4)GlcNAc(b1-2)Man(a1-6)]Man(b1-4)GlcNAc(b1-4)[Fuc(a1-6)]GlcNAc", "in_short": "as §1"}, "[14]": {"molecular_target": "Neu5Ac(a2-3)Gal(b1-4)GlcNAc(b1-2)Man(a1-3)[Neu5Ac(a2-6)Gal(b1-4)GlcNAc(b1-2)Man(a1-6)]Man(b1-4)GlcNAc(b1-4)GlcNAc", "in_short": "as §1"}, "[15]": {"molecular_target": "Neu5Ac(a2-3)Gal(b1-4)GlcNAc(b1-2)[Neu5Ac(a2-3)Gal(b1-4)GlcNAc(b1-4)]Man(a1-3)[GlcNAc(b1-4)][Neu5Ac(a2-3)Gal(b1-4)GlcNAc(b1-2)[Neu5Ac(a2-3)Gal(b1-4)GlcNAc(b1-6)]Man(a1-6)]Man(b1-4)GlcNAc(b1-4)GlcNAc", "in_short": "as §1"}, "[16]": {"molecular_target": "Neu5Ac(a2-3)Gal(b1-4)GlcNAc(b1-2)[Neu5Ac(a2-3)Gal(b1-4)GlcNAc(b1-4)]Man(a1-3)[GlcNAc(b1-4)][Neu5Ac(a2-3)Gal(b1-4)GlcNAc(b1-4)Man(a1-6)]Man(b1-4)GlcNAc(b1-4)GlcNAc", "in_short": "as §1"}, "[17]": {"molecular_target": "Neu5Ac(a2-3)Gal(b1-4)GlcNAc(b1-2)[Neu5Ac(a2-3)Gal(b1-4)GlcNAc(b1-6)]Man(a1-6)[Neu5Ac(a2-3)Gal(b1-4)GlcNAc(b1-2)Man(a1-3)][GlcNAc(b1-4)]Man(b1-4)GlcNAc(b1-4)GlcNAc", "in_short": "as §1"}, "[18]": {"molecular_target": "Neu5Ac(a2-3)Gal(b1-4)GlcNAc(b1-3)Gal", "in_short": "as §1"}, "[19]": {"molecular_target": "Neu5Ac(a2-3)Gal(b1-4)GlcNAc(b1-3)Gal(b1-3)GlcNAc", "in_short": "as §1"}, "[20]": {"molecular_target": "Neu5Ac(a2-3)Gal(b1-4)GlcNAc(b1-3)Gal(b1-4)GlcNAc", "in_short": "as §1"}, "[21]": {"molecular_target": "Neu5Ac(a2-3)Gal(b1-4)GlcNAc(b1-3)Gal(b1-4)GlcNAc(b1-2)Man(a1-3)[Neu5Ac(a2-3)Gal(b1-4)GlcNAc(b1-3)Gal(b1-4)GlcNAc(b1-2)Man(a1-6)]Man(b1-4)GlcNAc(b1-4)GlcNAc", "in_short": "as §1"}, "[22]": {"molecular_target": "Neu5Ac(a2-3)Gal(b1-4)GlcNAc(b1-3)Gal(b1-4)GlcNAc(b1-3)Gal(b1-4)GlcNAc", "in_short": "as §1"}, "[23]": {"molecular_target": "Neu5Ac(a2-3)Gal(b1-4)GlcNAc(b1-3)Gal(b1-4)GlcNAc(b1-3)Gal(b1-4)GlcNAc(b1-2)Man(a1-3)[Neu5Ac(a2-3)Gal(b1-4)GlcNAc(b1-3)Gal(b1-4)GlcNAc(b1-3)Gal(b1-4)GlcNAc(b1-2)Man(a1-6)]GalNAc", "in_short": "as §1"}, "[24]": {"molecular_target": "Neu5Ac(a2-3)Gal(b1-4)GlcNAc(b1-3)Gal(b1-4)GlcNAc(b1-3)GalNAc", "in_short": "as §1"}, "[25]": {"molecular_target": "Neu5Ac(a2-3)Gal(b1-4)GlcNAc(b1-3)Gal(b1-4)GlcNAc(b1-3)[Neu5Ac(a2-3)Gal(b1-4)GlcNAc(b1-3)Gal(b1-4)GlcNAc(b1-6)]GalNAc", "in_short": "as §1"}, "[26]": {"molecular_target": "Neu5Ac(a2-3)Gal(b1-4)GlcNAc(b1-3)Gal(b1-4)GlcNAc(b1-6)[Gal(b1-3)]GalNAc", "in_short": "as §1"}, "[27]": {"molecular_target": "Neu5Ac(a2-3)Gal(b1-4)GlcNAc(b1-3)Gal(b1-4)[Fuc(a1-3)]GlcNAc", "in_short": "as §1"}, "[28]": {"molecular_target": "Neu5Ac(a2-3)Gal(b1-4)GlcNAc(b1-3)GalNAc", "in_short": "as §1"}, "[29]": {"molecular_target": "Neu5Ac(a2-3)Gal(b1-4)GlcNAc(b1-3)[Neu5Ac(a2-3)Gal(b1-4)GlcNAc(b1-6)]GalNAc", "in_short": "as §1"}},
  "note": "Some of the results follow.",
  "data": [
    {"binder": "B1", "values": [
      {"measurement": "glycan array binding signal (z-score)", "setting": "[1]", "result": 2.66},
      {"measurement": "glycan array binding signal (z-score)", "setting": "[2]", "result": 1.93},
      {"measurement": "glycan array binding signal (z-score)", "setting": "[3]", "result": 1.21},
      {"measurement": "glycan array binding signal (z-score)", "setting": "[4]", "result": 2.39},
      {"measurement": "glycan array binding signal (z-score)", "setting": "[5]", "result": 0.158},
      {"measurement": "glycan array binding signal (z-score)", "setting": "[6]", "result": 1.38},
      {"measurement": "glycan array binding signal (z-score)", "setting": "[7]", "result": 0.172},
      {"measurement": "glycan array binding signal (z-score)", "setting": "[8]", "result": 2.49},
      {"measurement": "glycan array binding signal (z-score)", "setting": "Neu5Ac(a2-3)Gal(b1-4)Glc", "result": 0.967},
      {"measurement": "glycan array binding signal (z-score)", "setting": "[9]", "result": 0.633},
      {"measurement": "glycan array binding signal (z-score)", "setting": "[10]", "result": -0.333},
      {"measurement": "glycan array binding signal (z-score)", "setting": "[11]", "result": 0.247},
      {"measurement": "glycan array binding signal (z-score)", "setting": "[12]", "result": -0.915},
      {"measurement": "glycan array binding signal (z-score)", "setting": "[13]", "result": 3.28},
      {"measurement": "glycan array binding signal (z-score)", "setting": "[14]", "result": -0.668},
      {"measurement": "glycan array binding signal (z-score)", "setting": "[15]", "result": 0.361},
      {"measurement": "glycan array binding signal (z-score)", "setting": "[16]", "result": -0.107},
      {"measurement": "glycan array binding signal (z-score)", "setting": "[17]", "result": 0.379},
      {"measurement": "glycan array binding signal (z-score)", "setting": "[18]", "result": 1.19},
      {"measurement": "glycan array binding signal (z-score)", "setting": "[19]", "result": 0.758},
      {"measurement": "glycan array binding signal (z-score)", "setting": "[20]", "result": 1.57},
      {"measurement": "glycan array binding signal (z-score)", "setting": "[21]", "result": 0.256},
      {"measurement": "glycan array binding signal (z-score)", "setting": "[22]", "result": 0.511},
      {"measurement": "glycan array binding signal (z-score)", "setting": "[23]", "result": 1.01},
      {"measurement": "glycan array binding signal (z-score)", "setting": "[24]", "result": -0.013},
      {"measurement": "glycan array binding signal (z-score)", "setting": "[25]", "result": 0.502},
      {"measurement": "glycan array binding signal (z-score)", "setting": "[26]", "result": 0.042},
      {"measurement": "glycan array binding signal (z-score)", "setting": "[27]", "result": 1.2},
      {"measurement": "glycan array binding signal (z-score)", "setting": "[28]", "result": 1.27},
      {"measurement": "glycan array binding signal (z-score)", "setting": "[29]", "result": 1.16}
    ]}
  ]
}
